Assay results as given in PubChem BioAssay AID540267 (National Center for Advancing Translational Sciences (NCATS), 2011).
The whole screen tested about 340,000 compounds, of which about 530 (0.16%) were called active. Inconclusive means that the source gave no clear call. Such entries were picked first, then a sample of the others. Rule as the data show it: active = activity change below about -80%; inconclusive = between about -30% and that limit; inactive = weaker than that.

Experiment: Small Molecules that selectively kill Giardia lamblia: qHTS;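 also: parasites exposed to compound for two days anaerobically before the ATP read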
Conditions: Giardia lamblia trophozoite viability; at 7.66 µM; stronger effect = lower value
Outline: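 Compounds were tested on trophozoites seeded at 100 cells/well and held 48 hrs at 37 deg C anaerobically. An ATP-based luminescent kit measured the remaining live cells.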
% is scaled to controls: 0 for no effect and ±100 for the full control effect.

Compound	activity change
COCc1ccc(C(=O)N2CCN(CC(=O)N3CCCC3)CC2)cc1	inconclusive: -30.5% [inhibitor]
Cc1cc([N+](=O)[O-])nn1CC(=O)Nc1ccccn1	inconclusive: -30.5% [inhibitor]
COCCCNc1nc2ccccc2nc1NS(=O)(=O)c1cc(Cl)ccc1Cl	inconclusive: -33.2% [inhibitor]
CS(=O)(=O)N1CCc2cc(C(=O)Nc3ccccc3)ccc21	inconclusive: -32.1% [inhibitor]
CCOC(=O)C1(CCCc2ccccc2)CCN(Cc2cn(CC)nc2C)CC1	inactive: -1.96%
COc1cc2cc(c1Cl)N(C)C(=O)CC(OC(=O)C(C)N(C)C(C)=O)C1(C)OC1C(C)C1CC(O)(NC(=O)O1)C(OC)C=CC=C(C)C2 (configuration not stated)	inconclusive: -34.7% [inhibitor]
Cc1c(NC(=O)C(C)N2C(=O)NC3(CCC(C)CC3)C2=O)c(=O)n(-c2ccccc2)n1C (configuration not stated)	inactive: 13.9%
O=C(Nc1cc(Cl)ccc1N1CCCCC1)c1cccs1	inactive: -10.2%
CCC(=O)NCCc1nc2cc(NC(=O)c3ccccc3OC)ccc2n1C	inactive: -23%
CSc1nc(-c2ccco2)nn1S(=O)(=O)c1ccc(C)cc1	inconclusive: -33.3% [inhibitor]
Cc1[nH]n(-c2nc(-c3cccc([N+](=O)[O-])c3)cs2)c(=O)c1C	inactive: -7.77%
COc1cc(OC)cc(C(=O)NC2CC3CCC(C2)N3Cc2ccco2)c1 (configuration not stated)	inconclusive: -32.3% [inhibitor]
CC(C)NC(=NCc1ccc(Cl)cc1Cl)Nc1ccccc1	inconclusive: -31% [inhibitor]
Cc1cc(C)c(C#N)c(Nc2ccc3c(c2)OCCO3)n1	inactive: 2.46%
COC(=O)Cn1c(=O)c2c(nc3n2CCCN3Cc2ccccc2)n(C)c1=O	inactive: -2.97%
CCOC(=O)C1=C(C)N(c2ccccc2)C(=O)/C1=C\c1ccco1	inactive: -11.9%
Cc1cc(C)c(NC(=O)CNC(=O)c2ccc3c(=O)n4c(nc3c2)CCC4)c(C)c1	inconclusive: -36.7% [inhibitor]
O=S(=O)(c1ccc(N2CCN(Cc3ccccc3)CC2)nc1)N1CCCC1	inactive: 3.11%
O=C(Nc1ccc(Cl)cn1)c1cccc2c(Br)cccc12	inactive: -18%
Cc1ccc(C)c2[nH]c(=O)c(CN(Cc3ccco3)C(=S)NCC3CCCO3)cc12 (configuration not stated)	inactive: 12.8%
O=C(Nc1nc(-c2ccc(Cl)s2)cs1)c1ccco1	inconclusive: -31.4% [inhibitor]
N#Cc1ccsc1NC(=O)CN1CCN(Cc2ccccc2)CC1	inactive: 5.81%
COC(=O)c1c(-c2ccccc2Cl)noc1/C=C/N(C)C	inconclusive: -45% [inhibitor]
CC1CN(/C(=N\S(=O)(=O)c2ccccc2)c2ccccc2)CC(C)O1 (configuration not stated)	inconclusive: -34% [inhibitor]
COc1ccc2c3n([n+]([O-])c2c1)CCN=C3c1ccc(Cl)cc1	inconclusive: -70.1% [inhibitor]
Cn1ncc(N=Cc2ccccc2)c1C(N)=O	inactive: -7.38%

Compound	activity change
Cc1nc2ccc(NC(=O)c3ccc(Br)o3)cc2s1	inactive: -25.8%
Cc1cccnc1NC(=O)Nc1ccccc1	inactive: -9.03%
Cc1ccc(C(=O)NC(=S)N2CCN(C)CC2)cc1	inconclusive: -32.6% [inhibitor]
CC(C)C1Nc2ccc(S(N)(=O)=O)cc2C2C=CCC21 (configuration not stated)	inconclusive: -33.5% [inhibitor]
CCN(C(=O)COC(=O)CNC(=O)c1ccccc1C)C1=CCCCC1	inconclusive: -38% [inhibitor]
Clc1ccc(-c2cnc3n2CCCCC3)cc1	inconclusive: -37.8% [inhibitor]
Cc1ccc(N(CC(O)Cn2c3ccccc3c3ccccc32)S(C)(=O)=O)cc1 (configuration not stated)	inactive: -8.98%
CN(CCC#N)C(=O)COC(=O)c1nn(-c2ccccc2)c(=O)c2ccccc12	inactive: 23.2%
CC(Nc1nc(N2CCNCC2)nc2ccccc12)c1ccccc1 (configuration not stated)	active: -84%
CCc1cccc(CC)c1NC(=O)CSc1nc2ccc(N3C(=O)C4C5C=CC(C5)C4C3=O)cc2s1 (configuration not stated)	inactive: 7.09%
O=C(c1ccc([N+](=O)[O-])o1)N1CCN(c2nc3c(Cl)cccc3s2)CC1	inconclusive: -54.9% [inhibitor]
CC(=O)Oc1ccc(N(C(C)=O)S(=O)(=O)c2ccc(C)cc2)c2ccccc12	inactive: -25.4%
CN(C)c1ccc(/C=C2\C(=N)N3N=C(CC(=O)N4CCCC4)SC3=NC2=O)cc1Br	inconclusive: -39% [inhibitor]
COC(=O)CSc1ccc2nnc(CCNS(=O)(=O)c3ccccc3)n2n1	inconclusive: -36.7% [inhibitor]
O=C(N=Nc1c(O)n(Cc2ccccc2)c2ccccc12)c1ccc(O)cc1	inconclusive: -33.9% [inhibitor]
Cc1cnc(NC(=O)COc2ccccc2Cl)s1	inconclusive: -43% [inhibitor]
Cc1cc(C(=O)N/N=C(\CCC(=O)O)c2cccs2)c2ccccc2n1	inconclusive: -33% [inhibitor]
O=C(N/N=C(\c1ccccc1)c1cccnc1)c1ccc(O)cc1	inactive: -14.8%
CC1C/C(=C\c2cccnc2)C(=O)/C(=C/c2cccnc2)C1 (configuration not stated)	inconclusive: -33.3% [inhibitor]
CCOc1ccccc1N1C(=O)CC(Sc2nccc(C)n2)C1=O (configuration not stated)	inconclusive: -32.5% [inhibitor]
CCCN(CC(=O)Nc1ccccc1C)C(=O)c1ccc(COc2ccccc2)cc1	inactive: 18.5%
CSc1nc(N)nc(C2CC2)n1	inactive: 2.59%
CC(=O)c1c(C)[nH]c(C(=O)COC(=O)c2c(-c3ccccc3)noc2C)c1C	inactive: 12.1%
Oc1c(N=NC(=S)Nc2ccccc2F)c2ccccc2n1Cc1ccc(F)cc1	inconclusive: -34.9% [inhibitor]
Cc1ccc(-c2cc(=O)c3cc(C)ccc3[nH]2)cc1	inconclusive: -62.6% [inhibitor]
Cc1ccc(/C=N/NC(=O)C2COc3ccccc3O2)s1 (configuration not stated)	inactive: 3.24%
